Experimental data published in PubChem BioAssay AID1963576 (National Center for Advancing Translational Sciences (NCATS), 2024).
Out of some 46,000 compounds screened, about 60 (0.1%) were called active. Roughly 3% stayed inconclusive and do not appear here. Calls come from the whole dose curve; as a rule, active = well fitted inhibition curve with a large enough effect; inconclusive = small, poorly fitted or top-dose-only effect; inactive = no such curve, though single readings can be large or run the other way. The list shows a part of the results.

Test: Primary qHTS assay for Inhibitors of ovarian cancer metastasis using an organotypic tumor microenvironment (TME) model.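 For activity change, negative = inhibition: plate controls were DMSO wells for no effect and tomatine positive control wells for full effect.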 Note: nearly all actives have a fitted effect of over 65% in size.
Conditions: SKOV3ip1-GFP adhesion/invasion on 3D omental model, fluorescence; series mostly up to 45.8 µM; activity change, negative = inhibition: at the top concentration
Procedure, shortened: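 Primary human omental fibroblast/mesothelial 3D culture pre-formed 48 h. SKOV3ip1-GFP cells added with compounds (0.36-46 umol/L), incubated 2 h RT/16 h 37 C, fixed; GFP cells quantified at 488/509 nm.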

outcome, inactive:
Cc1c(C(=O)N2CCOCC2)oc2c1-c1nn(CC(=O)NCc3cccc(Cl)c3)cc1CC2
Cc1ccc(C)c(N2CCN(C(=O)CSCc3ccccc3Cl)CC2)c1
CCS(=O)(=O)N1CC(=O)N(c2ccc(Cl)cc2)C(C)(C(=O)NC2CCCCC2)C1 (stereo unspecified)
COc1ccc(/C=C/C(=O)Nc2nc(-c3cccs3)ns2)cc1OC
CC(=O)Nc1ccccc1-c1nc2ccccc2n(CC(=O)Nc2cccc(C(F)(F)F)c2)c1=O
CCCOc1cccc(C(=O)Nc2cc(-c3ccccc3)no2)c1
CC1=C(C(=O)Nc2ccc(F)cc2F)C2(CCN(C(C)C)CC2)OC1=O
Cc1ccc(C(=O)Nc2c(C)nc3ccccn3c2=O)cc1C
CCCN1Cc2cccc(C(=O)Nc3cccc(C(=O)OCC)c3)c2C1=O
COc1ccc(C2c3cc(OC)c(OC)cc3CC(=O)N2c2ccc(C)c(F)c2)cc1 (stereo unspecified)
CCN(C(=O)CN1C(=O)COc2ccc(S(=O)(=O)N3CCOCC3)cc21)c1ccc(OC)cc1
Cc1ccc(-c2nnc(Nc3ccc(C(=O)N(C)C)cc3)c3ccccc23)cc1S(=O)(=O)N(C)C
COc1ccc(C(=O)NCC(c2ccc(N(C)C)cc2)N2CCc3ccccc32)cc1OC (stereo unspecified)
CC(C)c1nn2c(=O)cc(COC(=O)c3cccs3)nc2s1
Cc1cccc(OC(=O)c2cc(-c3ccc(C)c(C)c3)on2)c1
CCc1ccc(CNC(=O)c2cnc3sc(N4CCOCC4)nn3c2=O)cc1
COc1cc2cc(CNc3ccccc3)c(=O)n(CC(=O)Nc3ccc(C)c(Cl)c3)c2cc1OC
CCOc1ccc2c(c1)c(=O)c(S(=O)(=O)c1ccc(F)cc1)cn2CC(=O)Nc1ccccc1C
CCOC(=O)c1ccc(-n2c(CCC(=O)O)ccc2-c2ccccc2)cc1
COc1ccc(C(=O)CC2(O)C(=O)N(Cc3cccc(C(F)(F)F)c3)c3ccccc32)cc1 (stereo unspecified)
CCOc1ccc(/C=C/c2nc(C#N)c(NC(C)c3ccccc3)o2)cc1 (stereo unspecified)
CCc1cccc(C)c1NC(=O)CN1C(=O)C2(SCC(=O)N2c2cccc(F)c2)c2ccccc21 (stereo unspecified)
CCOc1ccc(CCNC(=O)CSc2nnnn2-c2ccccc2)cc1OCC

Activity change, negative = inhibition, inactive:
Cc1sc(-c2cc3c([nH]c2=O)CC(c2ccccc2)CC3=O)nc1-c1ccc(Cl)cc1 (stereo unspecified) -14.8%
COc1cccc(NC(=O)CC2Nc3cc(C)c(C)cc3NC2=O)c1 (stereo unspecified) 31.7%
COc1ccc(OC)c(S(=O)(=O)Nc2cccc(-c3ccc(N4CCCCC4)nn3)c2)c1 -2.98%
CC(C)(C)c1ccc(C(=O)Nc2onc3c2CCCC3)cc1 -4.25%
CCc1ccc(S(=O)(=O)Nc2cccc(-c3ccc(N4CCOCC4)nn3)c2)cc1 -11.3%
CC(C)(C)c1ccc(C(=O)NCC(c2ccc(Cl)cc2)N2CCOCC2)cc1 (stereo unspecified) -22.7%
CCOc1ccc(NS(=O)(=O)c2ccc3c4c(cccc24)C(=O)N3)cc1 -9.81%
Cc1ccc(CNC(=O)CC2Oc3ccc(Cl)cc3NC2=O)cc1 (stereo unspecified) 15.9%
Cc1cccc(NC(=O)CCS(=O)(=O)c2cc(Br)cc3c2N(C(=O)C2CC2)CC3)c1 6.41%
CCOc1cccc2cc(S(=O)(=O)c3ccccc3F)c(=O)oc12 2.51%
Cc1ccc(CO)cc1Nc1ncnc2onc(-c3ccc(F)cc3)c12 -8.74%
CC(=O)c1cccc(NC(=O)CSc2nc3ccccc3nc2Cc2ccc(F)cc2)c1 -5.85%
CCc1ccc(NC(=O)CN(c2cc(C)cc(C)c2)S(=O)(=O)c2c(C)[nH]c(=O)[nH]c2=O)cc1 4.39%
CCc1cccc(NC(=O)C(Cc2ccccc2)n2cccc2)c1 (stereo unspecified) -14.5%
CCOc1ccc(CNC(=O)c2ccc3c(c2)nc2n3CCOC2)cc1OC 35%
COc1ccc(N2CC(NC(=O)c3ccc(S(=O)(=O)N4CCCCC4)cc3)CC2=O)cc1 (stereo unspecified) -6.77%
CCN(CC)C(=O)CSc1nc(-c2ccc(C)cc2)nc2c1Cc1c(CO)cnc(C)c1O2 0.355%
COc1cccc(-c2nc(SCC(=O)NC3CCCC3)c(-c3ccc(C)cc3)[nH]2)c1 -5.23%
CC1=C(c2ccc(C(C)C)cc2)S(=O)(=O)N=C1N1CCC(C(=O)NCCc2ccco2)CC1 -3.46%
Cc1ccc(CNC(=O)c2ccc3nc(SCc4ccc(F)cc4)[nH]c3c2)cc1 -4.4%
COc1ccccc1C(=O)Nc1ccc2oc(-c3cccc4c(Br)cccc34)nc2c1 -20.2%
CCN(c1ccccc1)S(=O)(=O)c1c(-c2ccc(C)cc2)csc1C(=O)OC -9.6%
COc1ccc2c(c1)cc1c(=O)n(CC(=O)NC3CC3)nc(C)n12 -8.09%
COCCNc1nc(NCc2cccc(Cl)c2)c2cnn(C)c2n1 -4.46%
COc1ccc(/C=C/C(=O)Nc2ccc3nc(N4CCC(C)CC4)cc(C)c3c2)cc1 5.67%
CCC1Oc2ccc(Cl)cc2N(CC(=O)NCCc2ccc(Cl)cc2)C1=O (stereo unspecified) 10.5%
COc1ccccc1CNC(=O)CCn1c(=O)c2cccn2c2cccnc21 -5.88%
C=Cc1ccc(Cn2c(C)c(CNCc3ccccc3C)c(C(=O)O)c2C)cc1 0.498%
O=C(Cc1csc2nc(-c3ccc(F)cc3)cn12)NCc1ccccc1 -30%
O=[N+]([O-])c1cc(-c2nc(-c3ccccc3)no2)ccc1NC1CCCCC1 7.64%
O=C(Nc1nnc(S(=O)(=O)N2CCCCC2)s1)c1ccccc1Br 1.03%
Cc1ccc(NC(=O)c2ccc3c(O)c(S(=O)(=O)c4ccccc4)c(=O)[nH]c3c2)cc1Cl 5.79%
COc1ccc(-c2nc3ccccc3s2)cc1NC(=O)c1ccc(F)cc1 0.976%
Cc1cccc(NC(c2ccccc2F)c2ccc3ccc(C)nc3c2O)n1 (stereo unspecified) -13%
Cc1ccc(OCC(=O)Nc2ccccc2OCc2cc(=O)n3ccccc3n2)cc1C -8.65%
COC(=O)c1ccccc1NC(=O)C1CCN(C(=O)N2CC(C)Oc3ccccc32)CC1 (stereo unspecified) 3.09%
N[C@@H](C(=O)N[C@@H]1C(=O)N2C(C(=O)O)=C(Cl)CS[C@H]12)c1ccccc1 -3.08%
O=C(COc1ccc(Cl)cc1)OCc1cc(=O)n2nc(C3CC3)sc2n1 -12.5%
O=C(Nc1cccc(F)c1)c1ccc2c(c1)N(Cc1ccccc1)C(=O)c1ccccc1S2(=O)=O 31.4%
CC(C)(C)CC(=O)NCC(c1ccc2c(c1)OCO2)N1CCOCC1 (stereo unspecified) -5.08%
Cc1nc2cccnc2n1-c1cccc(C(=O)NCCN(C)C)c1 -1.93%
CC(=O)Nc1ccc2nc3c(=O)n(C)c(=O)n(C)c3nc2c1C -3.85%
CCOC(=O)Cn1c(=O)oc2cc(S(=O)(=O)N3CCN(c4cccc(C)c4)C(C)C3)ccc21 (stereo unspecified) -2.76%
COc1ccccc1CNC(=O)C(C)n1c(=O)cc(-c2ccccc2)c2c(C)nn(C)c21 (stereo unspecified) 1.41%
COc1ccc(Cl)cc1NC(=O)N1CCN(Cc2cc(=O)n3nc(-c4ccccc4)sc3n2)CC1 -1.71%
O=C1CCSC2(C(=O)N(Cc3ccc(F)cc3)c3ccccc32)N1c1ccc(Cl)cc1 (stereo unspecified) 7.18%
N#Cc1nc(-c2ccc(COc3ccccc3)o2)oc1N1CCN(c2ccccc2)CC1 -4.96%
COCCN(Cc1ccco1)C(=O)c1cc2c(=O)[nH]c3ccc(C)cc3c2s1 -0.75%
CCOC(=O)c1c(S(=O)(=O)N2CCCC(C(=O)NCc3cccc(C)c3)C2)c(C)n(C)c1C (stereo unspecified) 15.4%
CCOC(=O)c1cnn(-c2ccc(C(=O)Nc3ccc(C(C)=O)cc3)cc2)c1N -12.2%
NC1=NC(c2cccc(Cl)c2)n2c(nc3ccccc32)N1 (stereo unspecified) -6.14%
CCCS(=O)(=O)Nc1cccc(-c2cn3ccc(C)cc3n2)c1 -4.69%
CCOc1c(Br)cc(C2CC(=O)Nc3cc4c(cc32)OCO4)cc1OC (stereo unspecified) -8.91%
COc1ccc(C2C=C(c3ccc(Cl)cc3)Nc3nc(-c4ccc(Cl)cc4)nn32)cc1 (stereo unspecified) -5.93%
O=C(CSc1n[nH]c(-c2ccc(F)cc2)n1)NCc1ccccc1Cl 0.418%
COc1ccc(CCNC(=O)c2cccc(Nc3nc4ccccc4nc3-n3nc(C)cc3C)c2)cc1OC -7.77%
Cc1ccc(NC(=O)c2oc3ccc4c(c3c2C)C(=O)CC(C)(C)O4)c(C)c1 -15.2%
O=C(COc1ccccc1)NCC(c1ccc(Cl)cc1)N1CCOCC1 (stereo unspecified) 2.82%
Cc1ccc(-c2noc(-c3ccc(N4CCN(C)CC4)c([N+](=O)[O-])c3)n2)cc1 -12%
COC(=O)c1ccc(NC(=O)CCCC(=O)OCC(=O)c2ccc(Cl)cc2)cc1 -0.74%
COc1ccc(C)cc1NS(=O)(=O)c1c(C(=O)N2CCC(C)CC2)c(C)n(C)c1C 7.72%
COc1ccc(N2CCN(S(=O)(=O)c3ccc(-c4ccno4)cc3OC)CC2)cc1 6.53%
COc1cccc(C(=O)N2c3ncnn3C3(CCCCC3)[C@@H]3CCCC[C@@H]32)c1 9.55%
CC(=O)N1CCc2cc(Br)cc(S(=O)(=O)N3CCC(C(=O)Nc4ccc(C(C)C)cc4)CC3)c21 9.37%
COc1ccc(C)cc1NC(=O)Nc1cccc(OCc2cc(=O)n3ccc(C)cc3n2)c1 -7.57%
Cn1ncc2c(N3CCN(c4ccccc4F)CC3)ncnc21 7.02%
Cc1ccccc1OCC(=O)NCC(c1ccc(Cl)cc1)N1CCCCC1 (stereo unspecified) 1.63%
CN(Cc1ccccc1)S(=O)(=O)c1ccc(NC(=O)c2cc(=O)c3ccccc3o2)cc1 9.78%
Cc1ccccc1NC(=O)Cn1c(=O)n(CCc2ccccc2)c(=O)c2ccccc21 47.3%
COc1ccc(OC)c(Nc2sc(C(=O)c3ccccc3)c(N)c2S(=O)(=O)c2ccccc2)c1 -0.726%
COc1ccc(C(=O)COC(=O)c2cc(-c3cccs3)nc3ccccc23)cc1 0.94%
O=C(Cn1ncc2c([nH]c3ccccc32)c1=O)NCCCN1CCN(c2ccccc2)CC1 -4.61%
O=c1oc2ccccc2c(N2CCN(c3ccc(F)cc3)CC2)c1CN1CCCC1 -8.16%
